# The supplement of paper PMC4604168 (melanoma cell lines)
# The list shows a part of the results. Many values rest on one well or one pass, so single values are uncertain.
# Key:
# Experiment in all cases: cell count relative to DMSO control; melanoma cells; higher = more viable cells
# Conditions in all cases: library dose: low library concentration; 72 h
# MZ2-MEL = tested on: MZ2-MEL
# MeWo = tested on: MeWo
# RPMI7951 = tested on: RPMI7951
# RVH-421 = tested on: RVH-421
# SkMel28 = tested on: SkMel28
# SkMel2 = tested on: SkMel2
# SkMel30 = tested on: SkMel30
# SkMel5 = tested on: SkMel5
# UACC257 = tested on: UACC257
# UACC62 = tested on: UACC62
# 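Also: cell number obtained by counting DAPI-stained nuclei in high-throughput microscope images with image analysis software, screen run in 1,536-well plates.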
Structure (SMILES),cell count (MZ2-MEL) [%],cell count (MeWo) [%],cell count (RPMI7951) [%],cell count (RVH-421) [%],cell count (SkMel28) [%],cell count (SkMel2) [%],cell count (SkMel30) [%],cell count (SkMel5) [%],cell count (UACC257) [%],cell count (UACC62) [%]
"O=c1[nH]nc(Sc2ncc([N+](=O)[O-])s2)n1-c1ccc2c(c1)OCCO2 + Cc1ccc(NC(=O)c2cccc(N(C)C)c2)cc1NC(=O)c1ccc(O)cc1 [ZM336372] (first compound 0.2 µM, partner dose 2 µM)",77.3,92.2,87.8,84.3,86.7,104,77.3,88.6,96.4,89
"O=c1[nH]nc(Sc2ncc([N+](=O)[O-])s2)n1-c1ccc2c(c1)OCCO2 + NC(=O)Nc1cc(-c2cccc(F)c2)sc1C(=O)N[C@H]1CCCNC1 [AZD7762] (first compound 0.2 µM, partner dose 0.02 µM)",118,97.7,110,111,105,102,104,90.2,91.4,97.7
"COc1cc(Nc2ncc(F)c(Nc3ccc4c(n3)NC(=O)C(C)(C)O4)n2)cc(OC)c1OC [Tamatinib] + CC1(C)NC(=O)N(c2ccc([N+](=O)[O-])c(C(F)(F)F)c2)C1=O [nilutamide] (first compound 0.4 µM, partner dose 1 µM)",88.9,93.2,91.7,114,76.9,95.6,111,89.9,75.3,80.6
"O=c1[nH]nc(Sc2ncc([N+](=O)[O-])s2)n1-c1ccc2c(c1)OCCO2 + CN(NC(=O)CC(=O)NN(C)C(=S)c1ccccc1)C(=S)c1ccccc1 [STA4783] (first compound 0.2 µM, partner dose 0.006 µM)",104,99.2,92.9,86.4,89,101,93.5,96.4,91.6,86
"CC1(C)NC(=O)N(c2ccc([N+](=O)[O-])c(C(F)(F)F)c2)C1=O [nilutamide] + NCC(=O)Nc1ccc(-n2nc(C(F)(F)F)cc2-c2ccc3c(ccc4ccccc43)c2)cc1 [OSU03012] (first compound 1 µM, partner dose 1 µM)",97.3,50.9,91,102,87.5,70.7,51.4,95.2,78.8,87
"C[C@@H]1CCN(C(=O)CC#N)C[C@@H]1N(C)c1ncnc2[nH]ccc12 + COc1cc2c(Oc3ccc4[nH]c(C)cc4c3F)ncnc2cc1OCCCN1CCCC1 [cediranib] (first compound 1 µM, partner dose 0.4 µM)",101,97.5,107,105,120,95.9,72.9,101,92.5,82.9
"O=C(O)c1ccc(-c2c[nH]c3ncc(-c4ccccc4)cc23)cc1C1CCCC1 + CN(NC(=O)CC(=O)NN(C)C(=S)c1ccccc1)C(=S)c1ccccc1 [STA4783] (first compound 0.16 µM, partner dose 0.006 µM)",95.7,87.9,105,97.3,83.8,94.1,86.8,108,79.8,81.4
"O=C(Nc1cccc(Cl)c1)Nc1ncc(CCNc2ncnc3ccsc23)s1 + NCC(=O)Nc1ccc(-n2nc(C(F)(F)F)cc2-c2ccc3c(ccc4ccccc43)c2)cc1 [OSU03012] (first compound 0.0008 µM, partner dose 1 µM)",102,63.2,117,85.9,73.9,93.7,69.3,106,102,95.3
"O=c1[nH]nc(Sc2ncc([N+](=O)[O-])s2)n1-c1ccc2c(c1)OCCO2 + NC1(c2ccc(-c3nc4ccn5c(=O)[nH]nc5c4cc3-c3ccccc3)cc2)CCC1 [MK2206] (first compound 0.2 µM, partner dose 0.4 µM)",96.3,87.9,106,92.4,86.7,85.9,76.9,–,–,82
"Cn1cncc1[C@@](N)(c1ccc(Cl)cc1)c1ccc2c(c1)c(-c1cccc(Cl)c1)cc(=O)n2C [tipifarnib] + CN(NC(=O)CC(=O)NN(C)C(=S)c1ccccc1)C(=S)c1ccccc1 [STA4783] (first compound 0.01 µM, partner dose 0.006 µM)",95.7,87.3,106,76.7,76.5,83.5,110,88.5,67.7,66.3
"O=c1[nH]nc(Sc2ncc([N+](=O)[O-])s2)n1-c1ccc2c(c1)OCCO2 + O=C(/C=C/c1cccnc1)NCCCCC1CCN(C(=O)c2ccccc2)CC1 [FK866] (first compound 0.2 µM, partner dose 0.01 µM)",51.5,98.5,96.6,72.1,98.6,71.9,74.4,–,–,86.9
"O=c1[nH]nc(Sc2ncc([N+](=O)[O-])s2)n1-c1ccc2c(c1)OCCO2 + Cn1c(=O)n(-c2ccc(C(C)(C)C#N)cc2)c2c3cc(-c4cnc5ccccc5c4)ccc3ncc21 [NVP-BEZ235] (first compound 0.2 µM, partner dose 0.004 µM)",95.7,94.5,90.6,151,100,102,76.1,–,–,96
"O=c1[nH]nc(Sc2ncc([N+](=O)[O-])s2)n1-c1ccc2c(c1)OCCO2 + Clc1ccc(Nc2nnc(Cc3ccncc3)c3ccccc23)cc1 [vatalanib] (first compound 0.2 µM, partner dose 2 µM)",95.3,76.8,89.6,95.4,85.3,93,89,–,–,76.7
"O=c1[nH]nc(Sc2ncc([N+](=O)[O-])s2)n1-c1ccc2c(c1)OCCO2 + C[C@@H]1CCN(C(=O)CC#N)C[C@@H]1N(C)c1ncnc2[nH]ccc12 [CP690550] (first compound 0.2 µM, partner dose 1 µM)",108,98.1,97.9,106,91.3,95.8,111,90,76.2,93.4
"O=c1[nH]nc(Sc2ncc([N+](=O)[O-])s2)n1-c1ccc2c(c1)OCCO2 + COC(=O)c1sccc1S(=O)(=O)Nc1ccc(Nc2ccccc2)cc1OC [GSK0660] (first compound 0.2 µM, partner dose 1 µM)",92.3,101,107,92.5,89,92.3,109,91.3,105,93.9
"O=c1[nH]nc(Sc2ncc([N+](=O)[O-])s2)n1-c1ccc2c(c1)OCCO2 + CN1CCN(c2ccc3nc(-c4c(N)c5c(F)cccc5[nH]c4=O)[nH]c3c2)CC1 [Dovitinib] (first compound 0.2 µM, partner dose 0.1 µM)",96.5,95,96,90.4,95,108,84.4,–,–,84.4
"O=c1[nH]nc(Sc2ncc([N+](=O)[O-])s2)n1-c1ccc2c(c1)OCCO2 + CCCCCCCCc1ccc(CCC(N)(CO)CO)cc1 [fingolimod] (first compound 0.2 µM, partner dose 2 µM)",91.8,98.6,74.2,118,88.1,97.4,117,–,–,96.1
"O=c1[nH]nc(Sc2ncc([N+](=O)[O-])s2)n1-c1ccc2c(c1)OCCO2 + C[C@]1(c2nc3c(C(N)=O)cccc3[nH]2)CCCN1 [Veliparib] (first compound 0.2 µM, partner dose 1.4 µM)",103,100,88.8,76.8,98.4,90.3,83.2,–,–,87.7
"O=c1[nH]nc(Sc2ncc([N+](=O)[O-])s2)n1-c1ccc2c(c1)OCCO2 + COc1cc(Nc2ncc(F)c(Nc3ccc4c(n3)NC(=O)C(C)(C)O4)n2)cc(OC)c1OC [Tamatinib] (first compound 0.2 µM, partner dose 0.4 µM)",93.8,93.8,80.8,101,85.1,94.1,78.9,104,73.7,88
"O=c1[nH]nc(Sc2ncc([N+](=O)[O-])s2)n1-c1ccc2c(c1)OCCO2 + Nc1ncn([C@H]2C[C@H](O)[C@@H](CO)O2)c(=O)n1 [decitabine] (first compound 0.2 µM, partner dose 0.1 µM)",79.8,102,88.9,68.1,88.9,101,107,–,–,85.6
"O=c1[nH]nc(Sc2ncc([N+](=O)[O-])s2)n1-c1ccc2c(c1)OCCO2 + C=CCNC1=C2C[C@@H](C)C[C@H](OC)[C@H](O)[C@@H](C)/C=C(\C)[C@H](OC(N)=O)[C@@H](OC)/C=C\C=C(/C)C(=O)NC(=CC1=O)C2=O [Tanespimycin] (first compound 0.2 µM, partner dose 0.002 µM)",93.2,102,72.3,92.4,94.4,95.5,105,–,–,92.7
"O=c1[nH]nc(Sc2ncc([N+](=O)[O-])s2)n1-c1ccc2c(c1)OCCO2 + CC1(C)CCC(c2ccc(Cl)cc2)=C(CN2CCN(c3ccc(C(=O)NS(=O)(=O)c4ccc(N[C@H](CCN5CCOCC5)CSc5ccccc5)c(S(=O)(=O)C(F)(F)F)c4)cc3)CC2)C1 [ABT263] (first compound 0.2 µM, partner dose 0.4 µM)",94,64.5,69.6,45.1,86.3,89.6,76.8,–,–,94.2
"O=c1[nH]nc(Sc2ncc([N+](=O)[O-])s2)n1-c1ccc2c(c1)OCCO2 + COc1ccc(C2=N[C@@H](c3ccc(Cl)cc3)[C@@H](c3ccc(Cl)cc3)N2C(=O)N2CCNC(=O)C2)c(OC(C)C)c1 [Nutlin-3] (first compound 0.2 µM, partner dose 0.1 µM)",96,110,106,104,96.4,97,94.5,–,–,90.1
"O=c1[nH]nc(Sc2ncc([N+](=O)[O-])s2)n1-c1ccc2c(c1)OCCO2 + CCN(CC)CCCCNc1ncc2cc(-c3cc(OC)cc(OC)c3)c(NC(=O)NC(C)(C)C)nc2n1 [PD173074] (first compound 0.2 µM, partner dose 0.1 µM)",104,99.5,91.3,93.7,93.1,108,93,93.4,116,102
